Our source for the binding signal values is article PMC12136788.

First the molecules themselves.
T1: UNK ZnF1-3 (human, UniProt Q9C0B0 31-174)
T1 sequence: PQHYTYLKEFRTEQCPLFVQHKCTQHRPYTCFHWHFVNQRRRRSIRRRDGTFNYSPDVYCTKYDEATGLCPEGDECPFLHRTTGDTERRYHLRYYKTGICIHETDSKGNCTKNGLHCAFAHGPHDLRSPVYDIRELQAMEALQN

B1: chr17:74891714:74891715:+_ENSMUSG00000024072_ENSMUST00000024873|mus_mus|motif|central (ssRNA)
RNA: GGGAGUUCUACAGUCCGACGAUCAGAUUCUUUGAUGAAAUCUCCGCUUACACCGAGGUUUAAUUUGACAUCUGGAGCUGCGGUAGAACCGCUGAGAUCUUCCGCGUCCGCCGAAGACACAAAGGUGAAGUCCCCGUUGGCAGGCAACAGAGGAUUGAGCAUCA
B2: chr17:13104604:13104605:-_ENSMUSG00000057388_ENSMUST00000079121|mus_hu|FALSE|FALSE (ssRNA)
RNA: GGGAGUUCUACAGUCCGACGAUCAUAGAUUCUCUGAGGUUCCCGUAGAACCACACCACCUUCUGUCAUGGCACUUUGUAGUCGUUUCAUCGAGUCUGAGGCUGCCUCCCACGGGGUUGGUUGGUAGACCAUGAAGUUGAUUCCCAACAGAGGAUUGAGCAUCA
B3: 57883305_57883743_2155_CDS_ENSG00000047315_ENST00000314595|human|control|control (ssRNA)
RNA: GGGAGUUCUACAGUCCGACGAUCGUAUGUGUUUCUAGGGGACUGGUUAUGAUCAGGAAAGGGAAUAAUAGAUGCACAGACACCAAGGAUCAUUGAGGGAUGAAUCUCACAGUGUGUAUAUGUGGAACAAUAAGCUACUUCUUUCAACAGAGGAUUGAGCAUCA
B4: chr1:167409666:167409667:+_ENSMUSG00000026568_ENSMUST00000027853|mus_hu|FALSE|FALSE (ssRNA)
RNA: GGGAGUUCUACAGUCCGACGAUCUUCUUGGUUAUAUCUCCAAAUACGAAAAAGCUGAGAGGCUCCUGCUGCCCCCACAAAGAAAUUAACAGCAAACAGACUCCAAUUUUUUGGAAUAAUUACAAGUGAGUAUCUUGACCAAAUCAACAGAGGAUUGAGCAUCA
B5: chr7:65705844:65705845:+_ENSG00000169902_ENST00000304842|hu_mus|hu_hu_hu_mus_False|78_88 (ssRNA)
RNA: GGGAGUUCUACAGUCCGACGAUCAAACGGAUCUUUGUUACAUAAAUAAGGGGCUGGCUCCCCAUGCUUAACAAUGACCUCCAGAAGGAAGGCUUGCAUGGCAGAAUCUAGCACUUCAUCUGUGACACCCGCCUCAUCCAAGCGCAACAGAGGAUUGAGCAUCA
B6: chr2:119839360:119839361:+_ENSMUSG00000033902_ENSMUST00000066058|mus_mus|FALSE|FALSE (ssRNA)
RNA: GGGAGUUCUACAGUCCGACGAUCGCCAUCAGCACAGCCACAGAAGAUGUAUUCUUGGGUGACAGAGAUGCAGUGGGCCACAGUGGUCCUUAGCUCCACCCAUUUGUCCAGAAGCCUGCGAUCGCUGAACUCGCACAGCAGCCCCAACAGAGGAUUGAGCAUCA
B7: 73725471_73725591_98_5pUTR_ENSMUSG00000022105_ENSMUST00000022701|mouse|control|control (ssRNA)
RNA: GGGAGUUCUACAGUCCGACGAUCAGCAGCCGAGGGAGGCGCGCGGGGAGGCGGGCGGGCGCGCGCGCACGCCGGGCACGCCCCGUCCUCACCCGACUCCCGUUACAAAAAUAAUGGGAACGUCCCCCGAGGAAAACCGGACGCCAACAGAGGAUUGAGCAUCA
B8: chr14:89307221:89307222:+_ENSG00000165533_ENST00000346301|hu_mus|hu_hu_hu_mus_False|28_28 (ssRNA)
RNA: GGGAGUUCUACAGUCCGACGAUCUCCUGUUUGGUUAGUGCCAGGGAGCUUCAAAGAUGUGCCAGGGCGUGGGACCUGAGCAAUAGCAUUUUCAUCCAGGAUCAUUUCUGCAAUUCCUUCCUGGUCCACAUCAAUUUCAUCUAUCAACAGAGGAUUGAGCAUCA
B9: chr7:66532262:66532263:+_ENSMUSG00000025326_ENSMUST00000107537|mus_hu|motif|central (ssRNA)
RNA: GGGAGUUCUACAGUCCGACGAUCUCCUUGAACUAAGCUGUAGAGAACAGUGAUUCUUCGUUCACUGUACAUGCGAAUUCGGUUGUCAUAAUAUAAUCCCAAAUUCUUUGUGACAGCAUUCAAUAUAAAGGGACAUGUCAUAAACAACAGAGGAUUGAGCAUCA
B10: chr2:32526493:32526494:+_ENSG00000119820_ENST00000437765|hu_hu|motif|central (ssRNA)
RNA: GGGAGUUCUACAGUCCGACGAUCGAUCCAACCACCAAAAGUACAGGGGCUAUUACAAUGAGAGGAAGUAAUGAAUAUCCGGUAACUCCAAGGACUUGGCCAUAUGCAACUUCUCCACCAAGAACUCUGGCCAGUAAGAAAAUUCAACAGAGGAUUGAGCAUCA
B11: chr13:76104392:76104393:-_ENSG00000188243_ENST00000355801|hu_hu|motif|central (ssRNA)
RNA: GGGAGUUCUACAGUCCGACGAUCAUACUUAAGAGAUCUGCAAGUGUCUGAGCUCACAGCCAUACCCAGUUUCCACUGAAAAUCGGCAAGCUGGUUGGUGACAUCGGACUUAGCAUCCAGCGGCGGCUCGCUGGACGCCUCCAUCAACAGAGGAUUGAGCAUCA
B12: 80526068_80529710_987_CDS_ENSG00000141568_ENST00000335255|human|control|control (ssRNA)
RNA: GGGAGUUCUACAGUCCGACGAUCAUUUUUAGUGAUGUGUGUAUAAAUCCCGUUCAGGGUGAGCUGUUUGUCGGGAGCCAUCGUAAUCGCCUGAACUAUCAGCUGCGCGUAGGAGUAAGGCGGCUUUGAAUCAUCCUUCGGGCUCAACAGAGGAUUGAGCAUCA
B13: chr3:176767854:176767855:-_ENSG00000177565_ENST00000430069|hu_hu|hu_hu_hu_mus_False|18_28 (ssRNA)
RNA: GGGAGUUCUACAGUCCGACGAUCGACAUCCUUGUUACUGGGCACGUCCUGCCCUCCUUCCCGUAUGCAGUGUCUAAGCACGAGCUGCGUAGGGCCACUCGUGCUGUUCUCACUAAGAUUCCAUAUUCUUGCCGUGGAGUCUCCCAACAGAGGAUUGAGCAUCA
B14: chr4:76721835:76721836:+_ENSG00000138768_ENST00000264904|hu_mus|hu_hu_hu_mus_True|58_78 (ssRNA)
RNA: GGGAGUUCUACAGUCCGACGAUCGUUUGGCUGGGGUUUCUGAGACGCUCUGGAAUAAACUCAUGUUUUGCUAAUAAUCCUAGUUUCCUCUAUGAAAUUCUCUUUGCCAAUCCUCUUCUCUAUUAGUUGCUUUAGUUUCUCUUUCAACAGAGGAUUGAGCAUCA
B15: chr4:95690885:95690886:+_ENSMUSG00000028572_ENSMUST00000156910|mus_mus|mus_mus_mus_hu_False|18_58 (ssRNA)
RNA: GGGAGUUCUACAGUCCGACGAUCUUUAGAAAAUGUUAAAUACCAUGCUAAAAUAUUUUCAAAGGCUUAUUUUAUUUUACUAAAAGACACAGGCAAGCAGACACUACAAGAAUAUAUAAAUACAAACCUCAACAAUAUAACUGUCAACAGAGGAUUGAGCAUCA
B16: chr5:21408736:21408737:-_ENSMUSG00000042453_ENSMUST00000161356|mus_hu|mus_mus_mus_hu_False|48_48 (ssRNA)
RNA: GGGAGUUCUACAGUCCGACGAUCGUUGACAGAGUUGUAGAUGGUGGCUUCAUGGAACUGGAAAGGGGAGCAGCCAAUGCUGUUAGAAGAGGAAGGUAGGCACUGGGUCUGUACGAGCUGCCAGGAAUCCGAUCUUGCAUCCUUCAACAGAGGAUUGAGCAUCA
B17: chr11:86532819:86532820:-_ENSMUSG00000047126_ENSMUST00000103186|perfect_dup|motif|central (ssRNA)
RNA: GGGAGUUCUACAGUCCGACGAUCCAUGGCUCUGAGGCAUUCUAGGGAAUCUUCAACUGAUAAGGACCCAAAGUAAUUCACGGACCACUCAGGGUUAAGAAGAUGGGUAUGAACAACUGCACGUUUUAUGUCAUAUAAAUCGGUCAACAGAGGAUUGAGCAUCA
B18: 103228277_103235471_1382_CDS_ENSMUSG00000041781_ENSMUST00000047357|mouse|control|control (ssRNA)
RNA: GGGAGUUCUACAGUCCGACGAUCGUCUGCCUCUUUCGACUGCUCCAGUUUCUUAGCAGCUUCUUUCUUGAGUUUUUCUUUUUCCACAUAUUCCUCAAGUUCUUUCCCUUCAAGCUUCACACGUUUCCUCAGCUCGAUUUCUGUCAACAGAGGAUUGAGCAUCA
B19: 16701290_16701410_3608_CDS_ENSG00000145555_ENST00000513610|human|control|control (ssRNA)
RNA: GGGAGUUCUACAGUCCGACGAUCGGACUCGCCGCUGGAGGAGUUGUGUAGGCUCCCGGAGUCCUGCACUGAUGGGGCGAGCAGCACCGUGCUGUCCGCACUGGGGCUGGUGGGCACCACCGUGUCGUUCAUGUAUGGGUCCUCCAACAGAGGAUUGAGCAUCA
B20: chr1:163112212:163112213:-_ENSG00000143248_ENST00000313961|hu_hu|hu_hu_hu_mus_False|38_108 (ssRNA)
RNA: GGGAGUUCUACAGUCCGACGAUCUUUAUUUAUCCAGAAGAGUGAGUUACAUACUAGGCAAAGUAUUGGAUACAAUAAUCAGGAAACAAACACUAUUUUUCUUGAAUUUAAAACUUUAUGAGCGAAGUGCUGGCACAGGACUUACAACAGAGGAUUGAGCAUCA
B21: chr11:54532201:54532202:-_ENSMUSG00000052298_ENSMUST00000064104|mus_mus|FALSE|FALSE (ssRNA)
RNA: GGGAGUUCUACAGUCCGACGAUCCAAUCAAUCAAAGGCAGUUAGAUAGUAAGCAAAGUGGACCGCAGGAUCCAGCUACCUAUACUCAGCAGGGAAGAGGAACAGAAUGGGACCUGAGCAAAGGCCUCUUACUAACCACAGAGUCAACAGAGGAUUGAGCAUCA
B22: chr2:115890611:115890612:-_ENSMUSG00000027210_ENSMUST00000102538|mus_mus|motif|central (ssRNA)
RNA: GGGAGUUCUACAGUCCGACGAUCCAAUAAACUCCUGGAUGUGUCGUAUAUUUAAUAUCCCAGUCCGGAUAAGAAAGUGAGCGGGGUUGAAGAGUCCUUUUUUUCCAAACCAAGGAGACUUCUCCCAAUUUUCCAAUGUUAUUUCAACAGAGGAUUGAGCAUCA

The other results are listed elsewhere or left out.

The target of the test is T1, UNK ZnF1-3. The experiment in a line: nsRBNS (natural sequence RNA bind-n-seq); RBNS binding buffer (assumed for nsRBNS): 25 mM Tris pH 7.5, 150 mM KCl, 3 mM MgCl2, 0.01% Triton X-100, 500 ug/ml BSA, 20 U/ml SUPERase-In, 4 C; UNK is unkempt and MSI1 is Musashi-1; names of the RNAs are library labels; protein concentration not given here; high values mean tight binding.
The molecule B1 returned a binding signal of 0.728 enrichment R. Molecule B2 came in with a binding signal of 0.75 enrichment R. B3: the binding signal stood at 1.73 enrichment R. The figure for B4 is 1.52 enrichment R.

In turn, B5 gave a binding signal of 0.686 enrichment R. Molecule B6 registered a binding signal of 1.05 enrichment R.

Consider B7, for which the binding signal came out at 0.958 enrichment R. B8: the binding signal was 0.875 enrichment R. For B9, the binding signal is 0.506 enrichment R. On to B10, for which the binding signal came to 1.73 enrichment R. On to B11, for which the binding signal came to 0.457 enrichment R.

B12 gave a binding signal of 1.05 enrichment R. On to B13, for which the binding signal was 0.448 enrichment R. Then B14, with 0.443 enrichment R; and B15, with 1.87 enrichment R; and B16, with 1.68 enrichment R. Then B17, with 1.08 enrichment R; and B18, with 0.166 enrichment R. The molecule B19 gave a binding signal of 0.847 enrichment R. On to B20, for which the binding signal amounted to 2.13 enrichment R. In the case of B21, the binding signal amounted to 1.3 enrichment R. As to B22, the binding signal was 0.778 enrichment R.
